# Laboratory results: the supplement of paper PMC8728848
# The other results are listed elsewhere or left out.
# B1: HML-Native (Hypnea musciformis), P84871 (protein)
# chain: QKFCTLDIAPVCCQIVIGGGMYTAGNACMCEGFVSGVGRCENPKECPCTREAQIPSCCSSRWGLVSVTGKCACDCLGGTVAFPEPCPSPY
# Experiments:
# Assay in all cases: glycan array binding signal (z-score within array); higher = stronger binding
# Settings in all cases: glycan notation: IUPAC condensed, linker removed
# [1] = molecular target: Fuc(a1-2)Gal(b1-4)GlcNAc(b1-3)Gal(b1-4)GlcNAc(b1-2)Man(a1-3)[Fuc(a1-2)Gal(b1-4)GlcNAc(b1-3)Gal(b1-4)GlcNAc(b1-2)Man(a1-6)]Man(b1-4)GlcNAc(b1-4)GlcNAc
# Method in brief: (§1)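 Glycan array data came from 3228 arrays in the Consortium for Functional Glycomics database, and only arrays with an available protein sequence were kept. Glycan names were put into IUPAC-condensed notation, and columns mapping to the same glycan were averaged. The binding signal is a within-array Z-score, averaged across arrays of one protein sequence run at different concentrations or buffers and across linkers. A negative Z-score can be read as non-binding.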
# [2] = molecular target: Fuc(a1-2)Gal(b1-4)GlcNAc(b1-3)Gal(b1-4)GlcNAc(b1-3)Gal(b1-4)GlcNAc
# Method in brief: as §1
# [3] = molecular target: Fuc(a1-2)Gal(b1-4)GlcNAc(b1-3)GalNAc
# Method in brief: as §1
# [4] = molecular target: Fuc(a1-2)Gal(b1-4)GlcNAc(b1-3)[Fuc(a1-2)Gal(b1-4)GlcNAc(b1-6)]GalNAc
# Method in brief: as §1
# [5] = molecular target: Fuc(a1-2)Gal(b1-4)GlcNAc(b1-3)[Fuc(a1-3)[Gal(b1-4)]GlcNAc(b1-6)]Gal(b1-4)Glc
# Method in brief: as §1
# [6] = molecular target: Fuc(a1-2)Gal(b1-4)GlcNAc(b1-6)GalNAc
# Method in brief: as §1
# [7] = molecular target: Fuc(a1-2)Gal(b1-4)GlcNAc6S
# Method in brief: as §1
# [8] = molecular target: Fuc(a1-2)Gal(b1-4)[Fuc(a1-3)]GlcNAc
# Method in brief: as §1
# [9] = molecular target: Fuc(a1-2)Gal(b1-4)[Fuc(a1-3)]GlcNAc(b1-2)Man(a1-3)[Fuc(a1-2)Gal(b1-4)[Fuc(a1-3)]GlcNAc(b1-2)Man(a1-6)]Man(b1-4)GlcNAc(b1-4)[Fuc(a1-6)]GlcNAc
# Method in brief: as §1
# [10] = molecular target: Fuc(a1-2)Gal(b1-4)[Fuc(a1-3)]GlcNAc(b1-2)[Fuc(a1-2)Gal(b1-4)[Fuc(a1-3)]GlcNAc(b1-4)]Man(a1-3)[Fuc(a1-2)Gal(b1-4)[Fuc(a1-3)]GlcNAc(b1-2)Man(a1-6)]Man(b1-4)GlcNAc(b1-4)GlcNAc
# Method in brief: as §1
# [11] = molecular target: Fuc(a1-2)Gal(b1-4)[Fuc(a1-3)]GlcNAc(b1-3)Gal(b1-4)[Fuc(a1-3)]GlcNAc
# Method in brief: as §1
# [12] = molecular target: Fuc(a1-2)Gal(b1-4)[Fuc(a1-3)]GlcNAc(b1-3)Gal(b1-4)[Fuc(a1-3)]GlcNAc(b1-3)Gal(b1-4)[Fuc(a1-3)]GlcNAc
# Method in brief: as §1
# [13] = molecular target: Fuc(a1-2)Gal(b1-4)[Fuc(a1-3)]GlcNAc(b1-3)GalNAc
# Method in brief: as §1
# [14] = molecular target: Fuc(a1-2)Gal(b1-4)[Fuc(a1-3)]GlcNAc(b1-3)[Neu5Ac(a2-6)Gal(b1-4)GlcNAc(b1-6)]Gal(b1-4)Glc
# Method in brief: as §1
# [15] = molecular target: Fuc(a1-2)Gal3S(b1-4)GlcNAc
# Method in brief: as §1
# [16] = molecular target: Fuc(a1-2)Gal6S(b1-3)GlcNAc
# Method in brief: as §1
# [17] = molecular target: Fuc(a1-2)Gal6S(b1-3)GlcNAc6S
# Method in brief: as §1
# Fuc(a1-2)Gal6S(b1-4)Glc = molecular target: Fuc(a1-2)Gal6S(b1-4)Glc
# Method in brief: as §1
# [18] = molecular target: Fuc(a1-2)Gal6S(b1-4)Glc6S
# Method in brief: as §1
# Fuc(a1-2)[Gal(a1-3)]Gal = molecular target: Fuc(a1-2)[Gal(a1-3)]Gal
# Method in brief: as §1
# [19] = molecular target: Fuc(a1-2)[Gal(a1-3)]Gal(b1-3)GalNAc
# Method in brief: as §1
# [20] = molecular target: Fuc(a1-2)[Gal(a1-3)]Gal(b1-3)GalNAc(b1-3)Gal(a1-4)Gal(b1-4)Glc
# Method in brief: as §1
# [21] = molecular target: Fuc(a1-2)[Gal(a1-3)]Gal(b1-3)GlcNAc
# Method in brief: as §1
# [22] = molecular target: Fuc(a1-2)[Gal(a1-3)]Gal(b1-3)GlcNAc(b1-2)Man(a1-3)[Fuc(a1-2)[Gal(a1-3)]Gal(b1-3)GlcNAc(b1-2)Man(a1-6)]Man(b1-4)GlcNAc(b1-4)GlcNAc
# Method in brief: as §1
# [23] = molecular target: Fuc(a1-2)[Gal(a1-3)]Gal(b1-3)GlcNAc(b1-2)Man(a1-3)[Fuc(a1-2)[Gal(a1-3)]Gal(b1-3)GlcNAc(b1-2)Man(a1-6)]Man(b1-4)GlcNAc(b1-4)[Fuc(a1-6)]GlcNAc
# Method in brief: as §1
# [24] = molecular target: Fuc(a1-2)[Gal(a1-3)]Gal(b1-3)GlcNAc(b1-3)GalNAc
# Method in brief: as §1
# [25] = molecular target: Fuc(a1-2)[Gal(a1-3)]Gal(b1-3)GlcNAc(b1-6)GalNAc
# Method in brief: as §1
# [26] = molecular target: Fuc(a1-2)[Gal(a1-3)]Gal(b1-4)Glc
# Method in brief: as §1
# [27] = molecular target: Fuc(a1-2)[Gal(a1-3)]Gal(b1-4)GlcNAc
# Method in brief: as §1
# [28] = molecular target: Fuc(a1-2)[Gal(a1-3)]Gal(b1-4)GlcNAc(b1-2)Man
# Method in brief: as §1
binder,measurement,setting,value
B1,glycan array binding signal (z-score),[1],0.017
same,glycan array binding signal (z-score),[2],-0.329
same,glycan array binding signal (z-score),[3],-0.11
same,glycan array binding signal (z-score),[4],-0.119
same,glycan array binding signal (z-score),[5],-0.17
same,glycan array binding signal (z-score),[6],-0.124
same,glycan array binding signal (z-score),[7],-0.271
same,glycan array binding signal (z-score),[8],-0.079
same,glycan array binding signal (z-score),[9],3.87
same,glycan array binding signal (z-score),[10],-0.059
same,glycan array binding signal (z-score),[11],-0.168
same,glycan array binding signal (z-score),[12],-0.277
same,glycan array binding signal (z-score),[13],-0.185
same,glycan array binding signal (z-score),[14],-0.222
same,glycan array binding signal (z-score),[15],-0.202
same,glycan array binding signal (z-score),[16],-0.268
same,glycan array binding signal (z-score),[17],-0.206
same,glycan array binding signal (z-score),Fuc(a1-2)Gal6S(b1-4)Glc,-0.213
same,glycan array binding signal (z-score),[18],-0.204
same,glycan array binding signal (z-score),Fuc(a1-2)[Gal(a1-3)]Gal,-0.217
same,glycan array binding signal (z-score),[19],-0.241
same,glycan array binding signal (z-score),[20],-0.275
same,glycan array binding signal (z-score),[21],-0.211
same,glycan array binding signal (z-score),[22],-0.101
same,glycan array binding signal (z-score),[23],3.02
same,glycan array binding signal (z-score),[24],-0.281
same,glycan array binding signal (z-score),[25],-0.319
same,glycan array binding signal (z-score),[26],-0.106
same,glycan array binding signal (z-score),[27],-0.348
same,glycan array binding signal (z-score),[28],-0.154
